{"source": "PubChem BioAssay AID1240", "about": "(Sanford-Burnham Center for Chemical Genomics, 2008)", "note": "In all, about 50,000 compounds went through this assay and about 800 (1.6%) showed an effect of 50% or more. This is one part of the list.", "data": [{"target": "Bcl-2-like protein 10 (Homo sapiens) (UniProt Q9HD36)", "sequence (Q9HD36 whole entry, looked up)": "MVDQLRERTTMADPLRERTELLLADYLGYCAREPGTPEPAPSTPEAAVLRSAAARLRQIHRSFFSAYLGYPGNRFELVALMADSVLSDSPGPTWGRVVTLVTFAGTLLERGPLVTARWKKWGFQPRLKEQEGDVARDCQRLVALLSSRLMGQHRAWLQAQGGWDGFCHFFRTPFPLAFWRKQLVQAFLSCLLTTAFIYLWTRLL", "assay": "TR3 peptide-Bcl-B binding displacers, biochemical primary FP assay, phenotype converters (AID 1240);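 also: 0% = Bcl-B with tracer peptide and DMSO and 100% = tracer peptide lacking Bcl-B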", "conditions": "GST-Bcl-B / FITC-TR3 peptide fluorescence polarization; stronger effect = higher value; compound at 3.75 mg/L", "units": {"displacement": "%"}, "values": [{"smiles": "C=CCNS(=O)(=O)c1ccc(N2C(=O)c3ccccc3C2=O)cc1", "displacement": 10.9}, {"smiles": "O=C1N/C(=N\\N=C\\c2ccccc2O)SC1Cc1cccc(C(F)(F)F)c1", "note": "(stereo not given)", "displacement": 2.3}, {"smiles": "CCCC(Nc1ccccn1)n1nnc2ccccc21", "note": "(stereo not given)", "displacement": 7.6}, {"smiles": "COc1ccc(/C=C/C(=O)c2ccc(Cl)cc2)cc1[N+](=O)[O-]", "displacement": 1.5}, {"smiles": "Cc1ccc(-c2nc(-c3cccnc3)no2)cc1[N+](=O)[O-]", "displacement": 21.4}, {"smiles": "Cc1ccc(S(=O)(=O)/N=C(\\N)Nc2nc(C)c3ccccc3n2)cc1", "displacement": 10.1}, {"smiles": "CC(=O)Nc1c(Br)cc(C23CC4CC(CC(C4)C2)C3)cc1Br", "displacement": -14.5}, {"smiles": "Oc1ccc(C2Nc3ccc4ccccc4c3C3C=CCC32)cc1", "note": "(stereo not given)", "displacement": 40.2}, {"smiles": "CN1CCN(Cn2c(O)c(N=NC(=O)COc3ccc(Cl)cc3)c3ccccc32)CC1", "displacement": -8.1}, {"smiles": "CCC1CCc2c(sc(NC(=O)c3ccc(Br)o3)c2C(=O)OC)C1", "note": "(stereo not given)", "displacement": -64.2}, {"smiles": "O=C1C2C3C=CC(C3=C3C4CC5CC(C4)CC3C5)C2C(=O)N1c1cc(Cl)cc(Cl)c1", "note": "(stereo not given)", "displacement": 0.6}, {"smiles": "Cc1onc(-c2c(Cl)cccc2Cl)c1C(=O)Nc1ccc(N(C)C)cc1", "displacement": 12.1}, {"smiles": "Cc1ccc(C(C)C)c(OCCNC(=O)c2cc(F)c(F)cc2Cl)c1", "displacement": -2.5}, {"smiles": "CCc1ccccc1NC(=O)c1nn2c(c1Cl)NC(c1cccs1)CC2C(F)(F)F", "note": "(stereo not given)", "displacement": 0.5}, {"smiles": "O=C(CC1S/C(=N\\N=C\\c2cccs2)NC1=O)Nc1ccccc1C(F)(F)F", "note": "(stereo not given)", "displacement": -17.9}, {"smiles": "CCOc1cc(C(=O)Nc2sc(C)c(C)c2C(=O)OC)cc(OCC)c1OCC", "displacement": -4.9}, {"smiles": "O=C(NCc1ccccn1)C(=O)N/N=C/c1ccc(Cl)cc1", "displacement": -2.9}, {"smiles": "COc1cc(/C=C2/C(=O)NN(c3ccc(F)c(Cl)c3)C2=O)ccc1OC(C)=O", "displacement": 7.1}, {"smiles": "COc1ccc(N(CC(=O)NCC2CCCO2)S(=O)(=O)c2ccc(OC)c(OC)c2)cc1", "note": "(stereo not given)", "displacement": 13.6}, {"smiles": "O=C(c1ccccc1Cl)N1CCN(c2nc3ccccc3s2)CC1", "displacement": 0.4}, {"smiles": "COc1ccccc1N=C(C)C1=C(O)CSC1=O", "displacement": 1.4}, {"smiles": "CCOc1ccc(-c2cnc(N)nc2N)cc1", "displacement": -3}, {"smiles": "CC(C)CC1CC(C)(C(=O)CSc2n[nH]c(-c3ccccc3)n2)OC1=O", "note": "(stereo not given)", "displacement": 0}, {"smiles": "Fc1c(F)c(F)c(-c2c(F)c(F)c(N3CCOCC3)c(F)c2F)c(F)c1F", "displacement": 2.6}, {"smiles": "COC(=O)c1ccc(/C=C2/C=C(c3ccc(OC)cc3)OC2=O)cc1", "displacement": -46.3}, {"smiles": "Cc1ccc(-n2[nH]c(=O)c(/C=C3\\C=Nc4ccccc43)c2O)cc1Cl", "displacement": 11.5}, {"smiles": "O=S(=O)(Nc1nc2ccccc2nc1-n1cnc2ccccc21)c1ccccc1", "displacement": 29.3}, {"smiles": "O=C(NN1C(=O)C2C3C=CC(C4CC34)C2C1=O)c1cccc(Br)c1", "note": "(stereo not given)", "displacement": 0.5}, {"smiles": "O=C1CCNc2c(Cl)cc(Cl)cc21", "displacement": 88.6}, {"smiles": "O=C(Nc1cccc2nsnc12)c1cccc(OCc2ccccc2)c1", "displacement": 6}, {"smiles": "O=C1CSC(=O)N1CNc1ccccn1", "displacement": 14.5}, {"smiles": "O=C1c2ccccc2C(=O)N1CCCCN(C(=O)c1cc2ccccc2oc1=O)c1ccc(F)cc1F", "displacement": 11.4}, {"smiles": "Cc1cc(C)c(N2C(=O)c3ccccc3C2=O)c([N+](=O)[O-])c1", "displacement": 5.4}, {"smiles": "O=C(CC1SC(=O)NC1=O)Nc1cccc(O)c1", "note": "(stereo not given)", "displacement": 8.6}, {"smiles": "O=C(O)/C=C/C(=O)Nc1cc([N+](=O)[O-])ccc1F", "displacement": 8.2}, {"smiles": "C=C(C)c1cccc(C(C)(C)NC(=O)NCCCN(C)C)c1", "displacement": 0}, {"smiles": "O=C(O)c1ccccc1N=Cc1cc(Cl)ccc1O", "displacement": 2.7}, {"smiles": "COc1ccc(C(=O)N=Nc2c(O)n(CN3CCCC3)c3ccc(Br)cc23)cc1", "displacement": -8.9}, {"smiles": "CCOC(=O)c1ccc(-c2ccccc2)cc1", "displacement": 8.4}, {"smiles": "Cc1ccc(N2CC(C(=O)Nc3ccccc3Br)CC2=O)cc1", "note": "(stereo not given)", "displacement": 11.9}, {"smiles": "CCOC(=O)c1c(-c2ccccc2)csc1-n1c(C)ccc1C", "displacement": 1.7}, {"smiles": "O=C(/C=C/c1cccc(C(F)(F)F)c1)Nc1cccc(Cl)c1", "displacement": 14.9}, {"smiles": "CCCCOC(=O)c1cccc(NC(=O)c2ccc(OC)cc2)c1", "displacement": -3.1}, {"smiles": "CSc1nccn1CC(=O)Nc1ccccc1", "displacement": 9.6}, {"smiles": "COc1ccc(N2C(=O)NC(=O)C(=Cc3ccccc3OCC(=O)O)C2=O)cc1", "displacement": 7.3}, {"smiles": "Cc1cc2nc(-c3ccc(C)c(NC(=O)c4ccc([N+](=O)[O-])cc4)c3)oc2cc1C", "displacement": -8}, {"smiles": "Cc1ccc(S(=O)(=O)Nc2ccc(S(=O)(=O)NC(=O)C(C)C)cc2)cc1", "displacement": 13.8}, {"smiles": "CC(C)(C)c1nnc(NC(=O)Nc2ccccc2)s1", "displacement": -11.6}, {"smiles": "CCN=C(NCC)SC1CC(=O)N(c2cccc(OC)c2)C1=O", "note": "(stereo not given)", "displacement": 1.8}, {"smiles": "Cc1ccc(CNC(=O)C(=O)NC(C)C)cc1", "displacement": 4.4}, {"smiles": "Cc1ccc(OCC(=O)Nc2ccc(O)cc2)cc1C", "displacement": 12.9}, {"smiles": "CCCCOC(=O)c1ccc(NC(=S)NC(NC(=O)Cc2ccccc2)C(Cl)(Cl)Cl)cc1", "note": "(stereo not given)", "displacement": -1.3}, {"smiles": "CN(C)/C=C1\\N=C(c2ccc3c(c2)OCO3)OC1=O", "displacement": 39.7}, {"smiles": "Cc1ccc(OCc2nnc(NC(=O)Nc3ccc(Cl)cc3)s2)cc1C", "displacement": 5}, {"smiles": "CCOc1ccc(S(=O)(=O)N2CCOCC2)cc1", "displacement": 13.8}, {"smiles": "O=C(NCCc1ccccc1)c1nn2c(c1Cl)NC(c1ccc(Cl)cc1)CC2C(F)(F)F", "note": "(stereo not given)", "displacement": -1.1}, {"smiles": "CC(C)(C)c1ccc(/C=C/C(=O)NCCCN2CCOCC2)cc1", "displacement": -1.9}, {"smiles": "O=C(Nc1cccc([N+](=O)[O-])c1)c1cc(-c2ccccc2Cl)nc2ccccc12", "displacement": -2.5}, {"smiles": "CCOC(=O)c1nc(NC(=O)/C=C/c2ccco2)sc1C", "displacement": 73.7}, {"smiles": "Cc1nnc(N/N=C/c2ccc(Cl)c([N+](=O)[O-])c2)[nH]c1=O", "displacement": 1.9}, {"smiles": "NNC(=O)c1cc(-c2ccc(Br)cc2)n[nH]1", "displacement": -18}, {"smiles": "CN(C)c1ccc(/C=C2\\SC(N3CCCCCC3)=NC2=O)cc1", "displacement": -108}, {"smiles": "Nc1nnc(SCc2ccccc2[N+](=O)[O-])s1", "displacement": -6}, {"smiles": "O=C(CSc1nnc(CCCN2C(=O)c3cccc4cccc(c34)C2=O)n1-c1ccccc1)N1CCN(CCO)CC1", "displacement": 10}, {"smiles": "O=S(=O)(N=Nc1c(O)[nH]c2ccccc12)c1ccc(Cl)cc1", "displacement": 13}, {"smiles": "Cc1cc(Cl)ccc1NC(=O)CN(Cc1ccccc1)S(=O)(=O)c1ccccc1", "displacement": -2.1}, {"smiles": "O=C(Cc1ccc(Cl)cc1)NCCN1CCOCC1", "displacement": 1.7}, {"smiles": "Cc1ccc(-n2nc3ccc(NC(=O)c4ccco4)cc3n2)cc1Cl", "displacement": -33.8}, {"smiles": "COc1ccccc1NC(=O)c1cccnc1", "displacement": -17.7}, {"smiles": "COC(=O)c1ccc(N2C(=O)C=CC2=O)cc1", "displacement": -5}, {"smiles": "O=c1/c(=C/c2cn(CCOc3ccc(Br)cc3)c3ccccc23)sc2nc3ccccc3n12", "displacement": 16.9}, {"smiles": "COc1cccc(CN2CCN(C(=O)c3cccc(Cl)c3)CC2)c1OC", "displacement": 2.3}, {"smiles": "O=C(NCc1cc(Br)cc(Br)c1OC(=O)c1ccc([N+](=O)[O-])cc1)c1ccccc1", "displacement": 20.4}, {"smiles": "Fc1ccc(NC(=S)N2CCCC2)cc1", "displacement": 10.1}, {"smiles": "O=C(O)c1cc(NC(=O)c2ccccc2)cc(C(=O)O)c1", "displacement": 11.4}, {"smiles": "Nc1nnc(SCC(=O)c2ccc3c(c2)Cc2ccccc2-3)s1", "displacement": 31.3}, {"smiles": "C/C(=N\\Nc1nc(C(C)(C)C)cs1)c1ccccc1O", "displacement": -21}, {"smiles": "O=C(c1ccc(C#Cc2ccccc2)cc1)N1CCN(C(=O)c2ccc(C#Cc3ccccc3)cc2)CC1", "displacement": 5.7}, {"smiles": "CC1(C)CC(=O)C2=C(C1)OC1=C(C(=O)CC(C)(C)C1)C2c1ccccc1OCC(=O)O", "displacement": 3.2}, {"smiles": "CSCCNS(=O)(=O)c1ccc(NC(C)=O)cc1", "displacement": -6}, {"smiles": "COc1ccc(C2(CNC(=S)Nc3ccccc3)CCCC2)cc1", "displacement": -12.6}, {"smiles": "CCOC(=O)c1c(NC(=O)C(C)C)sc(C(N)=O)c1C", "displacement": 0.3}, {"smiles": "Cc1c(C(=O)OC(C)C)sc(NC(=O)c2cccs2)c1C(=O)OC(C)C", "displacement": -2.6}, {"smiles": "CC(CNC(=O)Nc1cccc(Cl)c1)NC(=O)Nc1cccc(Cl)c1", "note": "(stereo not given)", "displacement": 13.1}, {"smiles": "CN(C)c1ccc(/C=C/C=C/c2cc[n+](CCCS(=O)(=O)[O-])cc2)cc1", "displacement": -6.7}, {"smiles": "O=C(/C=C/c1ccc(OC2CSC2)cc1)c1ccc2c(c1)OCCO2", "displacement": 1.5}, {"smiles": "CCc1ccccc1NC(=O)C1CC1(c1ccccc1)c1ccccc1", "note": "(stereo not given)", "displacement": -5.3}, {"smiles": "O=C(Nc1cccc(Cl)c1)c1ccccc1C(F)(F)F", "displacement": 7.8}, {"smiles": "O=C(CCCN1C(=O)c2cccc3cccc(c23)C1=O)N1CCN(C/C=C/c2ccccc2)CC1", "displacement": 12.9}, {"smiles": "COc1ccc(-c2nc3cc(NC(=O)c4ccc(C)c(C)c4)ccc3o2)cc1", "displacement": 7.1}, {"smiles": "O=C1C(c2ccccc2)=S=C2N=C(c3ccccc3)C=CN12", "displacement": -4.8}, {"smiles": "Cc1ccc(OCC(=O)Nc2nc3ccccc3s2)cc1", "displacement": 2.5}, {"smiles": "CCc1ccc(OCCOCCN2CCC(C)CC2)cc1", "displacement": -1.2}, {"smiles": "Cc1ccc(OCC(=O)Nc2ccccc2Cl)cc1C", "displacement": -8.6}, {"smiles": "CC(C)(C)c1ccc(S(=O)(=O)N2CCN(c3ccc(F)cc3)CC2)cc1", "displacement": -16.6}, {"smiles": "CC(=O)NC1=NC(=O)/C(=C\\c2ccc(Cl)cc2)S1", "displacement": 133}, {"smiles": "COc1ccc(/C(N)=N/OC(=O)c2ccc(Cl)cc2)cc1", "displacement": 83.7}, {"smiles": "O=[N+]([O-])c1cc2c(cc1/C=N/NS(=O)(=O)c1ccccc1)OCO2", "displacement": 21.9}, {"smiles": "COc1ccc(C2CC(=O)C3=C(C2)Nc2ccccc2NC3c2cc(Br)ccc2OC)cc1", "note": "(stereo not given)", "displacement": -8.7}, {"smiles": "O=[N+]([O-])c1ccc2c(c1)c1ccccc1n2Cc1ccccc1O", "displacement": -13.3}, {"smiles": "O=C(NC1CCCCC1)c1nc2nc(-c3ccccc3)cc(C(F)(F)F)n2n1", "displacement": -8}, {"smiles": "Cc1cc(/C=N\\Nc2ccc([N+](=O)[O-])cn2)c(C)n1-c1ccc(C(=O)O)cc1", "displacement": -8.8}, {"smiles": "CCc1ncc(C(O)c2cccc(OC)c2OC)n1C", "note": "(stereo not given)", "displacement": 0.9}, {"smiles": "O=C(NN1C(=O)/C(=C/c2ccc(Cl)cc2Cl)SC1=S)c1ccccc1Cl", "displacement": 5.7}, {"smiles": "CCc1ccccc1NC(=O)C1CC(=O)N(c2cccc([N+](=O)[O-])c2)C1", "note": "(stereo not given)", "displacement": 0}, {"smiles": "COC(=O)c1sc(NC(=O)CCc2ccccc2)c(C(=O)OC)c1C", "displacement": -1.1}, {"smiles": "Cc1ccc(C2OCC3(CO)COC(c4ccc(C)cc4)N23)cc1", "note": "(stereo not given)", "displacement": -10.7}, {"smiles": "CCc1nnc(NC(=S)NC(=O)c2ccccc2)s1", "displacement": 2.2}, {"smiles": "COc1ccccc1OCCNC(=O)C(c1ccccc1)c1ccccc1", "displacement": 8}, {"smiles": "O=C(CSc1nc2sc3c(c2c(=O)n1-c1ccccc1)CCCC3)NCCO", "displacement": -0.6}]}]}
